In the supplement of paper PMC3334620:
The full ranking holds about 33,000 sequences; the median of “E-score (-0.5 to 0.5)” is about -0.01, and the highest 2% start at about 0.26. Some of the results follow.

What follows are sequences tested against Ste12 (UniProt P13574) (assay: PBM E-score (8-mer binding enrichment) (E-score (-0.5 to 0.5)); higher = stronger / more preferred TF binding; most listed sequences are background and not binding sites). Settings: protein concentration: 200 nM; construct: GST-DNA-binding domain.
In short: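 Full-length yeast transcription factors or their DNA-binding domains, GST-tagged and expressed with PURExpress, were applied at about 100-200 nM to universal all-10-mer Agilent arrays. These arrays had been made double-stranded by primer extension on fresh or once-stripped slides. Detection used fluorescent anti-GST, normalisation used masliner, and E-scores for ungapped eight-base words pooled with reverse complements came from the Universal PBM Analysis Suite.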

| Sequence | PBM E-score |
| --- | --- |
| ATCATGCC | -0.0639 |
| ACTCTACC | -0.0775 |
| AGTCGGTA | -0.074 |
| ATTGCGAA | 0.0458 |
| AACCCAGG | -0.0295 |
| AAAGAGTG | -0.00379 |
| CACTGCGC | -0.00321 |
| AGTAAAAG | 0.183 |
| GTCCACTA | 0.0217 |
| CGAAAGTC | -0.0427 |
| GTCAAGTA | -0.182 |
| AGGAGAGA | 0.0388 |
| CAAAAGTG | 0.00054 |
| CGCTGTCC | -0.148 |
| GAGACTCC | -0.175 |
| AAAGTACT | -0.0212 |
| CCCACAGC | -0.0421 |
| AGCCCGGC | -0.0732 |
| CATAACCA | 0.0804 |
| ATTAGTGA | 0.187 |
| GTGAGTCA | -0.219 |
| AACGAGTC | -0.202 |
| AGCATTGG | -0.138 |
| AGCCTCGC | -0.155 |
| GTAAGAAA | 0.131 |

| Sequence | PBM E-score |
| --- | --- |
| CATCCACC | 0.108 |
| CCAGACCG | -0.0555 |
| GGCATGTA | 0.0214 |
| TATGGTAA | 0.227 |
| GCGTGGAA | -0.165 |
| GTACAAAC | 0.105 |
| ACCATGTG | 0.0791 |
| TCCCATCA | -0.0913 |
| AAAGCGTC | -0.146 |
| ATAATTAG | 0.239 |
| AATGAAAG | 0.0381 |
| AAGAGTCA | -0.0851 |
| AGCGAGTG | 0.0509 |
| GTGTGCTA | -0.12 |
| ATAACACC | 0.195 |
| TCAATACA | 0.2 |
| GAGCGAAC | -0.0971 |
| CGGTATGA | 0.0297 |
| GAGCGTCA | -0.0754 |
| CATGCGTC | -0.0607 |
| ATATCTCG | 0.0439 |
| AGCCGAGC | -0.0523 |
| AGGGTAGC | -0.145 |
| GGGTGAAA | 0.315 |
| AGATTAAG | 0.0401 |

| Sequence | PBM E-score |
| --- | --- |
| GGTGTCTA | -0.0731 |
| ATTAACTC | 0.0478 |
| GCCGTGAA | 0.0793 |
| TGGCGCAA | 0.0618 |
| AGAGCACC | -0.207 |
| AGTCGACG | 0.12 |
| CACCCCGA | 0.0505 |
| TGTTCTAA | 0.218 |
| AACGGGAC | -0.00838 |
| GCACGTCC | -0.00813 |
| ATCCTCGC | -0.0196 |
| CGCGCGCA | 0.208 |
| ATAAGCAG | 0.116 |
| ACCCGGGC | 0.0876 |
| CGTACGGA | 0.0634 |
| ACTATACC | 0.176 |
| CCTAGAGG | -0.241 |
| GTTGACCA | -0.133 |
| AAGTTACT | -0.0151 |
| CAGTCCAA | -0.0933 |
| ACACGAGA | 0.104 |
| ATGGGCCA | -0.156 |
| CGCCCGAC | 0.134 |
| AATATAAC | 0.26 |
| AAATGGTT | 0.0425 |

| Sequence | PBM E-score |
| --- | --- |
| AATCCACG | 0.0269 |
| ATGAAGTC | -0.0947 |
| TAAGCATA | 0.0934 |
| CTAGTACC | -0.171 |
| GTAGGATA | -0.0715 |
| ACGAGAAG | 0.0375 |
| AAAAAAGA | 0.182 |
| ACGTGATA | -0.072 |
| TCACCGAA | 0.0426 |
| AATTAGCA | 0.0489 |
| CTACTCGA | -0.0222 |
| AATAAACC | 0.269 |
| ATTAACGC | 0.048 |
| TCGCCAGA | -0.066 |
| AGCGGACA | -0.0813 |
| ACATAAAC | 0.239 |
| AAGTGTTA | 0.135 |
| TACTACAA | 0.209 |
| AGACAGCA | -0.0579 |
| CATACTCG | 0.0991 |
| ACCGAAAG | -0.0851 |
| AGCCAAGG | -0.0345 |
| AAAACTTA | 0.0704 |
| CCTTGCCC | 0.0507 |
| AATTTCAG | 0.0479 |

| Sequence | PBM E-score |
| --- | --- |
| AATAACCG | 0.0816 |
| ATAACTTG | 0.16 |
| TCCGTCAA | 0.0611 |
| ATTTACAA | 0.134 |
| AGGGGGGC | -0.256 |
| AACTAGCC | -0.197 |
| GAAGCGGC | -0.162 |
| GACGTGAA | 0.0942 |
| ACAGCAAG | 0.147 |
| ACGGCCCC | -0.204 |
| CAGGAACA | -0.125 |
| CTAGACAA | -0.0777 |
| CTAGTCGC | -0.129 |
| ATTGATCG | -0.0607 |
| ATGGCAGA | 0.101 |
| GTTTGTTA | 0.169 |
| AAACTGCG | 0.063 |
| ATGCGCGG | -0.0784 |
| CACACCAC | -0.0727 |
| AATCCTTC | -0.223 |
| TACGTTCA | -0.194 |
| ATGATGCG | -0.0155 |
| CCCGAGTC | 0.0359 |
| CCGCGCCG | 0.0255 |
| CAACGTGA | 0.0802 |

| Sequence | PBM E-score |
| --- | --- |
| GCGGAACC | 0.0647 |
| ACGCTACA | 0.0976 |
| GGTCCGAA | 0.112 |
| ACACCAAC | 0.0319 |
| AGACTAGA | -0.168 |
| TGTTGTAA | 0.28 |
| TCACAGGA | 0.122 |
| CCATCTTC | 0.0246 |
| TACATATA | 0.24 |
| CTGTTTTA | 0.308 |
| CAACATGC | -0.0394 |
| CGAGTGGA | -0.176 |
| AAAAGGTC | 0.0321 |
| GCACCGGA | -0.0313 |
| CCAATACC | -0.0256 |
| CTTATTTA | 0.171 |
| TAGGCCGA | -0.23 |
| CTTGTCCA | -0.171 |
| CAACAATC | 0.161 |
| CGTCCGTA | -0.0703 |
| ACCTAGAT | -0.0236 |
| CCCTCTAA | 0.0388 |
| CAACTCGC | 0.146 |
| ATAGCGAA | 0.00796 |
| GTCACAGA | 0.0869 |

| Sequence | PBM E-score |
| --- | --- |
| TGAGAGAA | 0.0828 |
| AGACGGTC | -0.116 |
| CACGTACG | -0.0403 |
| CAGTTATA | 0.107 |
| TAGTACCA | -0.0853 |
| CGCTCGGA | 0.0593 |
| CCAAGTGG | -0.14 |
| GTATTGCA | -0.157 |
| TATATTCA | 0.142 |
| TCTGTGAA | 0.0905 |
| CCCGATAA | 0.102 |
| CAATAACG | -0.00073 |
| AACCCCTC | 0.0941 |
| CCGTAGAC | -0.14 |
| ACCTTCCT | -0.221 |
| AGTTCCAC | -0.17 |
| CAAAAAAA | 0.352 |
| CATCAGCG | 0.00813 |
| TATATGGA | 0.0277 |
| ACGTGTTC | -0.171 |
| TACGCTAA | 0.0905 |
| AACCAGCC | -0.096 |
